# PubChem BioAssay AID504339 (National Center for Advancing Translational Sciences (NCATS), 2011)
# The campaign covered roughly 390,000 compounds. About 17,000 (4.4%) were called active. Inconclusive means that the source gave no clear call. Such entries were picked first, then a sample of the others. Calls come from the whole dose curve; as a rule, active = well fitted inhibition curve with a large enough effect; inconclusive = small, poorly fitted or top-dose-only effect; inactive = no such curve, though single readings can be large or run the other way. Where the call is inconclusive, the potency comes from a doubtful curve fit.
# Biological target: Lysine-specific demethylase 4A (Homo sapiens) (UniProt O75164)
# Test: qHTS Assay for Inhibitors of JMJD2A-Tudor Domain; note: nearly all actives have a fitted effect of over 50% in size
# Conditions: AlphaScreen JMJD2A-Tudor / H3K4me3 peptide binding; activity change, negative = inhibition: at 114 µM (top of the series)
# % is set by controls: 0 for no effect and ±100 for the full control effect; potency is the fitted concentration of half-maximal effect; tags give direction and shape of the fitted curve.
# UniProt O75164, sequence (O75164 whole entry, looked up, the tested form may be a part): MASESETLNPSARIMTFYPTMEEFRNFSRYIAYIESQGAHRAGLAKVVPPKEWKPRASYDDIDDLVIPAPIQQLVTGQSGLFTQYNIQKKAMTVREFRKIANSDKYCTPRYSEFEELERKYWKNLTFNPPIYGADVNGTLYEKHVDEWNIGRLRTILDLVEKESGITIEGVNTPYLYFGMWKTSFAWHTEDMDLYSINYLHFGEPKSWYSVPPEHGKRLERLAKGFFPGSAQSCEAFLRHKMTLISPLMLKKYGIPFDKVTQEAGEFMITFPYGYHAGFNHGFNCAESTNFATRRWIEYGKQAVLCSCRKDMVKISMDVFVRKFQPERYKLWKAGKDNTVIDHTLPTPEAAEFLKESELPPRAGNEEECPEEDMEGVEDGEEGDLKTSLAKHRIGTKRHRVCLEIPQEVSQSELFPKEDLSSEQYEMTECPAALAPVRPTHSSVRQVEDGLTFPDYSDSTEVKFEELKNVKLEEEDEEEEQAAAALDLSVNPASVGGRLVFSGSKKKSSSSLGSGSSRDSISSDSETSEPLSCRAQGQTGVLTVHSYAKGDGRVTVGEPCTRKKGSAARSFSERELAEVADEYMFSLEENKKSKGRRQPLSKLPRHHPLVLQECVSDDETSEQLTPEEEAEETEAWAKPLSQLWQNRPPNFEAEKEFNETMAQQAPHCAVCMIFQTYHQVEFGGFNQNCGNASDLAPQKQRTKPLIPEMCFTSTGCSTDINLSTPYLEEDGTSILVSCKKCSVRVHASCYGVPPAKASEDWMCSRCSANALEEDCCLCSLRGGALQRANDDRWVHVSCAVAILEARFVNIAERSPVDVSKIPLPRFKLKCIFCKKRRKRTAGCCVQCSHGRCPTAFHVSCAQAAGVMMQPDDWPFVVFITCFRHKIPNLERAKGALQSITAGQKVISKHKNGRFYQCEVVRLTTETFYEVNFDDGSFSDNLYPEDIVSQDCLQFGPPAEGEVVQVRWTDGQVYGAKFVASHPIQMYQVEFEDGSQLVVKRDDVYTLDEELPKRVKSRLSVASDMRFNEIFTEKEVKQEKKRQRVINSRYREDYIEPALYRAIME
SMILES,Potency,"activity change, negative = inhibition"
O=C(NCc1ccccn1)c1coc(=O)c(Br)c1,"inconclusive: 2.51 µM [inhibitor, partial curve, poor fit]",–
Cc1cc(-c2n[nH]c(=S)n2Cc2ccco2)n(C)n1,active: 20 µM,–
Cc1cc2c(cc1C)[n+](C)cn2CC(O)COCC1CC=CCC1 (stereo not given),"inconclusive: 35.5 µM [inhibitor, single point]",–
O=C(Nc1ccc(N2CCN(c3ccc(F)cc3)CC2)c(C(=O)O)c1)c1ccccc1F,"inconclusive: 89.1 µM [inhibitor, single point]",–
COc1ccc(C(=O)NC(=S)NC(C)c2ccccc2)cc1 (stereo not given),"inconclusive: 56.2 µM [inhibitor, partial curve]",–
O=c1c2ccccc2c(-c2ccccc2)nn1Cc1c(Cl)cccc1Cl,–,inactive: 13.5%
CCOc1cccc(C2c3[nH]c4ccccc4c3CCN2C(=O)CSCc2ccc(F)cc2)c1 (stereo not given),"inconclusive: 15.8 µM [inhibitor, full curve, poor fit]",–
Fc1ccc(-c2nn3c(C4COc5ccccc5O4)nnc3s2)cc1 (stereo not given),"inconclusive: 70.8 µM [inhibitor, partial curve, poor fit]",–
CCOc1ccc(Cl)cc1S(=O)(=O)N1CCN(c2ccc(C)c(C)c2)CC1,"inconclusive: 39.8 µM [inhibitor, partial curve]",–
COc1cc(/C=N/N2CCN(Cc3ccccc3)CC2)cc(OC)c1OC(C)=O,"inconclusive: 79.4 µM [inhibitor, single point]",–
CCCNC(=O)c1ccc(-c2nc(CS(=O)(=O)c3ccc(C)cc3)c(C)o2)cc1,–,inactive: -28.3%
Cc1ccc(C(=O)OCC(=O)c2ccc(S(=O)(=O)N3CCCCC3)cc2)o1,"inconclusive: 35.5 µM [inhibitor, partial curve]",–
Cn1c(=O)n(C)c2cc([N+](=O)[O-])c(N3CCN(S(=O)(=O)c4ccc5ccccc5c4)CC3)cc21,–,inactive: -20.3%
O=C(C1COc2ccccc2O1)N(Cc1cccnc1)c1nc2c(Cl)cccc2s1 (stereo not given),"inconclusive: 56.2 µM [inhibitor, partial curve]",–
CC(=O)Nc1ccc(S(=O)(=O)N(C)CC(=O)OCC(=O)Nc2ccc3c(c2)OCO3)cc1,–,inactive: -14.2%
C[C@]12c3[nH]c4ccccc4c3CCN1C(=O)C(CC(=O)NCC13CC4CC(CC(C4)C1)C3)C[C@@H]2C(=O)N1CCCCC1 (stereo not given in full),"inconclusive: 31.6 µM [inhibitor, full curve]",–
COc1ccccc1N(CC(=O)Nc1ccc2c(c1)OCO2)S(=O)(=O)c1ccc(C)cc1,–,inactive: -26%
COc1cccc2sc(N(CCCN(C)C)C(=O)C(c3ccccc3)c3ccccc3)nc12,"inconclusive: 14.1 µM [inhibitor, full curve]",–
CN(C)/C=N/c1sc2c(c1C#N)CCCCC2,"inconclusive: 39.8 µM [inhibitor, single point]",–
CN1CCN(S(=O)(=O)c2cccc(C(=O)NC3CCCC3)c2)CC1,–,inactive: -2.76%
Brc1ccc(C2=CC(c3cccs3)n3ncnc3N2)cc1 (stereo not given),–,inactive: -21.6%
CN1CCN(/N=C/c2nc(-c3ccc(Cl)cc3)n3ccccc23)CC1,"inconclusive: 63.1 µM [inhibitor, single point]",–
CC(=O)c1ccc(S(=O)(=O)NCC(=O)NC(c2nc3ccccc3[nH]2)C(C)C)cc1 (stereo not given),–,inactive: -28.4%

SMILES,Potency,"activity change, negative = inhibition"
O=C(COc1ccccc1Cl)Nc1ccc(N2CCCC2)cc1,"inconclusive: 12.6 µM [inhibitor, partial curve]",–
Cc1cc(C)c(O)c(-c2cc(C(=O)Nc3ccc(S(=O)(=O)N4CCOCC4)cc3)[nH]n2)c1,"inconclusive: 39.8 µM [inhibitor, partial curve]",–
Cc1cc(C)nc(/N=C2/NC(=O)CS2)n1,active: 22.4 µM,–
COCCOCCn1c(/C=C/c2ccccc2)nc2ccccc21,"inconclusive: 28.2 µM [inhibitor, partial curve]",–
Cc1cc(C)c2nc(NNC(=O)c3ccc(S(=O)(=O)N4CCCCC4)cc3)sc2c1,"inconclusive: 10 µM [inhibitor, full curve]",–
NNC(=S)NCCc1ccccc1,"inconclusive: 56.2 µM [inhibitor, partial curve]",–
CC1=NN(c2nc3ccccc3[nH]2)C(=O)/C1=C/N(C)C,active: 56.2 µM,–
O=C(COC(=O)c1ccco1)NCCc1ccc(Cl)cc1,–,inactive: 8.14%
NS(=O)(=O)c1ccc(NC(=O)c2c(F)cccc2Cl)cc1,–,inactive: -3.02%
CCN(CC)S(=O)(=O)c1ccc(C(=O)N2CCN=C2SC)cc1,–,inactive: -11%
CCc1ccc(OCC(O)CN2CCC(CN3C(=O)c4cccc5cccc(c45)C3=O)CC2)cc1 (stereo not given),"inconclusive: 12.6 µM [inhibitor, partial curve, poor fit]",–
C/C(Cn1cnc([N+](=O)[O-])n1)=N\NC(=O)c1cccc(F)c1,"inconclusive: 11.2 µM [inhibitor, partial curve]",–
Cc1ccc(C(=O)N/C(=C\c2ccc(-c3ccccc3[N+](=O)[O-])o2)C(=O)NCCN(C)C)cc1,active: 56.2 µM,–
Cc1cc2c(Nc3cccc(O)c3)ncnc2s1,"inconclusive: 79.4 µM [inhibitor, single point]",–
COc1ccc(NC(=O)CSc2nc3[nH]ncc3c(=O)[nH]2)cc1OC,"inconclusive: 39.8 µM [inhibitor, single point]",–
CCc1ccc(NC(=O)C2CCC(CNS(=O)(=O)c3ccc4c(c3)C(C)(C)C(=O)N4C)CC2)cc1 (stereo not given),–,inactive: 4.4%
CCOC(=O)c1[nH]c(C)c(/C(O)=C2\C(=O)C(=O)N(CCCn3ccnc3)C2c2ccncc2)c1C (stereo not given),active: 35.5 µM,–
O=C(NC(=S)Nc1ccc2c(c1)OCCO2)c1cccc2ccccc12,"inconclusive: 25.1 µM [inhibitor, partial curve]",–
CC(=O)Nc1ccc(NC(=O)C(C)Sc2nc3ccccc3c(=O)n2CC2CCCO2)cc1 (stereo not given),–,inactive: -17.9%
COc1ccc(CCN2C(=O)N(c3ccc(C)cc3)C(=O)C2CC(=O)Nc2ccc(F)cc2)cc1 (stereo not given),–,inactive: -21.9%
NN1C(=O)c2cccc3c(C(=O)O)ccc(c23)C1=O,–,inactive: -15.7%
CCC(CO)Oc1cc(NCc2cccc(OC)c2)c2ncn(C(C)C)c2c1 (stereo not given),"inconclusive: 39.8 µM [inhibitor, single point]",–
